According to PubChem BioAssay (Tox21):
The shares of active, inactive and inconclusive entries below differ from those in the screen. For some assays here: Where the call is inconclusive, the potency comes from a doubtful curve fit. Activity calls are given as the source filed them. Unless noted, calls come from the whole dose curve; as a rule, active = well fitted curve in the direction sought with a large enough effect in the repeat runs; inconclusive = weak or mixed curves; inactive = no such curve, though single readings can be large; an effect the other way counts as inactive or inconclusive.

Legend:
[1] = qHTS assay to identify small molecule that activate the aryl hydrocarbon receptor (AhR) signaling pathway - cell viability counter screen (AID 743086); note: nearly all actives have a fitted effect of over 45% in size;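 for viability change, negative = cytotoxic: HepG2 liver cells carrying the AhR DRE luciferase reporter; % is set by controls: 0 for no effect and ±100 for the full control effect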
In short: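 Cytotoxicity counter screen: CellTiter-Fluor signal (30 min, 37 C) in 4000 HepG2 cells/well carrying the DRE-luciferase reporter, following 24 h compound exposure at 37 C.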

[2] = target: Peroxisome proliferator-activated receptor gamma (Homo sapiens) (UniProt P37231); assay: qHTS assay to identify small molecule antagonists of the peroxisome proliferator-activated receptor gamma (PPARg) signaling pathway (AID 743191; calls by dose curve; note: nearly all actives have a fitted effect of over 30% in size; for ratio activity, negative = inhibition: % is set by controls: 0 for no effect and ±100 for the full control effect); conditions: HEK293H PPARg-UAS-bla, beta-lactamase ratio, antagonist, 17 h; ratio activity, negative = inhibition: at 62.6 µM (top of the series) unless noted
Chain of UniProt P37231 (P37231 whole entry, looked up): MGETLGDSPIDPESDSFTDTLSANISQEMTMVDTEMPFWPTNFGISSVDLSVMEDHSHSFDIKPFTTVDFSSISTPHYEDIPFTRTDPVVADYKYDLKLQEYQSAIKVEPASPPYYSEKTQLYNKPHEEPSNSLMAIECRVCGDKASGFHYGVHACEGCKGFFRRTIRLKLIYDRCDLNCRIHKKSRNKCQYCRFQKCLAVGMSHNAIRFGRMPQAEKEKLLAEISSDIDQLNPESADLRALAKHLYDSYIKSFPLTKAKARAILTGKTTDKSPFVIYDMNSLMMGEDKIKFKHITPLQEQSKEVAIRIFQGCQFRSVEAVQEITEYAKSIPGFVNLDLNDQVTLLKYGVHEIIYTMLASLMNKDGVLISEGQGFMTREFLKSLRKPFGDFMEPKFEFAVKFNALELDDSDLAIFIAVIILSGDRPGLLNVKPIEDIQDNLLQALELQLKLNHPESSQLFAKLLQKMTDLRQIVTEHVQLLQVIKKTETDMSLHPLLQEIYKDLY
In short: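 Beta-lactamase reporter under UAS control in HEK293H PPARg-bla cells; compound treatment 17 h at 37C. Read-out: fluorescence intensity after 1 h room-temperature incubation with LiveBLAzer B/G FRET substrate.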

[3] = qHTS assay to identify small molecule antagonists of the peroxisome proliferator-activated receptor gamma (PPARg) signaling pathway - cell viability counter screen (AID 743194); conditions: PPARg-bla HEK293H viability, CellTiter-Glo luminescence, 17 h, co-treated with 50 nM rosiglitazone; activity change, negative = cytotoxicity: at 62.6 µM (top of the series) unless noted; note: nearly all actives have a fitted effect of over 55% in size
In short: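 Viability was measured as CellTiter-Glo luminescence in GeneBLAzer PPARg UAS-bla HEK293H cells. These cells had been exposed 17 h at 37 C to compounds together with rosiglitazone at 50 nM final, with the beta-lactamase readout taken in the same wells.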

[4] = qHTS assay for small molecule agonists of the antioxidant response element (ARE) signaling pathway (AID 743202; active = well fitted activation curve with a large enough effect in the signal ratio in the repeat runs, not every such curve was filed as active; inconclusive = weak or mixed curves, or effect the other way; inactive = no such curve, though single readings can be large or run the other way; the % refers to the signal ratio); conditions: HepG2 ARE-bla reporter, beta-lactamase FRET, 16 h; activation: at 73.3 µM (top of the series) unless noted
In short: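 After 16 hours of compound treatment at 37 C, HepG2 cells with a stably integrated ARE-driven beta-lactamase reporter were loaded 2 hours at room temperature with LiveBLAzer B/G FRET substrate and fluorescence intensity measured.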

[5] = qHTS assay for small molecule activators of the heat shock response signaling pathway (AID 743210; active = well fitted activation curve with a large enough effect in the signal ratio in the repeat runs, with a control signal flat, not every such curve was filed as active; inconclusive = weak or mixed curves; the % refers to the signal ratio); conditions: HeLa HSE-bla reporter, beta-lactamase ratio, 5 h; activation: at 62.6 µM (top of the series) unless noted
In short: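 Compound exposure lasted 5 h at 37 C in HeLa cells carrying a heat-shock-element-driven beta-lactamase reporter. Read-out: fluorescence intensity after 2.5 h room-temperature loading with LiveBLAzer B/G FRET substrate.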

[6] = target: Vitamin D3 receptor (Homo sapiens) (UniProt P11473); assay: qHTS assay to identify small molecule antagonists of the vitamin D receptor (VDR) signaling pathway (AID 743223; active = well fitted inhibition curve with a large enough effect in the signal ratio in the repeat runs, not every such curve was filed as active; inconclusive = weak or mixed curves, or effect the other way; inactive = no such curve, though single readings can be large or run the other way; the % refers to the signal ratio; for activity change, negative = inhibition: % is set by controls: 0 for no effect and ±100 for the full control effect); conditions: VDR-UAS-bla HEK293T, beta-lactamase FRET ratio, 16 h; activity change, negative = inhibition: at 61 µM (top of the series) unless noted
Chain of UniProt P11473 (P11473 whole entry, looked up): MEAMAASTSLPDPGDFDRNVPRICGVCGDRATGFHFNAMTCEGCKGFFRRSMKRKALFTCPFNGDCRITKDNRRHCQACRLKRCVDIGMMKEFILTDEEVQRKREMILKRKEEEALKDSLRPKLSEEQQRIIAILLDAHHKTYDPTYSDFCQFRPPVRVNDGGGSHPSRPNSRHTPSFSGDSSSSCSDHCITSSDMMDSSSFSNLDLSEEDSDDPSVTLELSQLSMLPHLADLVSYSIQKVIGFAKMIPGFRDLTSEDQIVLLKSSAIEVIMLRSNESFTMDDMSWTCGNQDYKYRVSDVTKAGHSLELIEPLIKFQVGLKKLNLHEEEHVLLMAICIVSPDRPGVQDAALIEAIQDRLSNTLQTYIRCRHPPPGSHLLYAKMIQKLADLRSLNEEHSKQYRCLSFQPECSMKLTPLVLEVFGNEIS
In short: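 Beta-lactamase activity in VDR-bla cells is measured by FRET substrate fluorescence (2 h, room temperature) after cells spend 16 h at 37C with test compound and 3 nM final 1alpha,25-dihydroxyvitamin D3.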

[7] = qHTS assay to identify small molecule agonists of the vitamin D receptor (VDR) signaling pathway - cell viability counter screen (AID 743224); conditions: VDR-bla HEK293T viability, CellTiter-Glo luminescence, 16 h; activity change, negative = cytotoxicity: at 62.6 µM (top of the series); note: nearly all actives have a fitted effect of over 50% in size; for activity change, negative = cytotoxicity: % is set by controls: 0 for no effect and ±100 for the full control effect
In short: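 CellTiter-Glo viability readout on VDR-bla cells, measured after 16 h of compound treatment at 37C in the same wells.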

[8] = target: Peroxisome proliferator-activated receptor gamma (Homo sapiens) (UniProt P37231); assay: qHTS assay to identify small molecule agonists of the peroxisome proliferator-activated receptor gamma (PPARg) signaling pathway (AID 743094; active = well fitted activation curve with a large enough effect in the signal ratio in the repeat runs, not every such curve was filed as active; inconclusive = weak or mixed curves, or effect the other way; inactive = no such curve, though single readings can be large or run the other way; the % refers to the signal ratio); conditions: HEK293H PPARg-UAS-bla, beta-lactamase FRET ratio, 17 h; activation: at 57 µM (top of the series) unless noted
In short: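 Agonism was assessed in a beta-lactamase reporter system, HEK293H cells with a stably integrated UAS-bla construct under PPARg control; the 17 h treatment at 37C preceded a 1 h room-temperature FRET substrate read.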

[9] = qHTS assay for small molecule activators of the heat shock response signaling pathway - cell viability counter screen (AID 743209); conditions: HSE-bla HeLa viability, CellTiter-Glo luminescence, 5 h; activity change, negative = cytotoxicity: at 62.6 µM (top of the series) unless noted; note: nearly all actives have a fitted effect of over 50% in size
In short: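 Compounds dissolved in DMSO were added to overnight-plated HSE-bla HeLa cells and left 5 h at 37 C. Cell viability was quantified by luminescence using CellTiter-Glo.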

[10] = qHTS assay to identify small molecule agonists of the peroxisome proliferator-activated receptor delta (PPARd) signaling pathway - cell viability counter screen (AID 743211); conditions: PPARd-bla HEK293H viability, CellTiter-Glo luminescence, 17 h; activity change, negative = cytotoxicity: at 62.6 µM (top of the series) unless noted; note: nearly all actives have a fitted effect of over 55% in size
In short: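 Following 5 h plating at 37 C and 5% CO2, PPARd UAS-bla HEK293H cells took up test compounds for 17 h. Viability was quantified by luminescence 30 min after CellTiter-Glo addition at room temperature.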

[11] = target: Peroxisome proliferator-activated receptor delta (Homo sapiens) (UniProt Q03181); assay: qHTS assay to identify small molecule antagonists of the peroxisome proliferator-activated receptor delta (PPARd) signaling pathway (AID 743215; active = well fitted inhibition curve with a large enough effect in the signal ratio in the repeat runs, not every such curve was filed as active; inconclusive = weak or mixed curves, or effect the other way; inactive = no such curve, though single readings can be large or run the other way; the % refers to the signal ratio;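 note: cells stimulated with agonist L165041 at 300 nM final during compound exposure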); conditions: HEK293H PPARd-UAS-bla, beta-lactamase FRET ratio, antagonist, 17 h; ratio activity, negative = inhibition: at 62 µM (top of the series) unless noted
Chain of UniProt Q03181 (Q03181 whole entry, looked up): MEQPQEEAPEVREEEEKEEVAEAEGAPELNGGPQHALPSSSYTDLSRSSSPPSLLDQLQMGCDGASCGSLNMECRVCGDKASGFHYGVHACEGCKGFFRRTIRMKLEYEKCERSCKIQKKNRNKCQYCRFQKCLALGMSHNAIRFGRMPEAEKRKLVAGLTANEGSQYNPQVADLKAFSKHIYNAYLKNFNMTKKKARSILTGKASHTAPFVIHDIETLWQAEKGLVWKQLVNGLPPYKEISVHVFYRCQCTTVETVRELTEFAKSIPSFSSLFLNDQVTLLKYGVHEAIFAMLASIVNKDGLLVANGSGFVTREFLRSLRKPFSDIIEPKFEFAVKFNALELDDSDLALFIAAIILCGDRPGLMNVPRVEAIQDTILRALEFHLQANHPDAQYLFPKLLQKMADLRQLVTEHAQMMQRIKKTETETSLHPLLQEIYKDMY
In short: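 Here, a reporter line (HEK293H, beta-lactamase under a UAS) measures PPARd signaling. Compounds are tested against agonist L165041 at 300 nM final concentration over 17 h at 37 C, with fluorescence read after substrate.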

[12] = qHTS assay to identify small molecule agonists of the farnesoid-X-receptor (FXR) signaling pathway - cell viability counter screen (AID 743218); conditions: FXR-bla HEK293T viability, CellTiter-Glo luminescence, 16 h; viability change, negative = cytotoxic: at 62.6 µM (top of the series) unless noted; note: nearly all actives have a fitted effect of over 45% in size
In short: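 Quantitative HTS counter screen measuring ATP-based viability via CellTiter-Glo luminescence in HEK 293T cells carrying a UAS-driven beta-lactamase reporter, after 16 h compound exposure at 37 C.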

[13] = target: Vitamin D3 receptor (Homo sapiens) (UniProt P11473); assay: qHTS assay to identify small molecule agonists of the vitamin D receptor (VDR) signaling pathway (AID 743222; calls by dose curve); conditions: HEK293T VDR-UAS-bla, beta-lactamase FRET ratio, 16 h; activation: at 63.5 µM (top of the series) unless noted
In short: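 Tox21 cell reporter format: VDR-bla line, 16 h compound exposure in 5% CO2 at 37C, then fluorescence intensity after 2 h with LiveBLAzer B/G FRET substrate.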

[14] = target: Peroxisome proliferator-activated receptor delta (Homo sapiens) (UniProt Q03181); assay: qHTS assay to identify small molecule agonists of the peroxisome proliferator-activated receptor delta (PPARd) signaling pathway (AID 743212; calls by dose curve); conditions: HEK293H PPARd-UAS-bla, beta-lactamase FRET ratio, 17 h; activation: at 62.6 µM (top of the series) unless noted
In short: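 Beta-lactamase reporter readout: a ratiometric FRET signal from the LiveBLAzer substrate after 2 h at room temperature. Compound exposure at 37 °C in PPARδ-bla HEK293H cells driven by an upstream activator sequence.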

[15] = target: Bile acid receptor (Homo sapiens) (UniProt Q96RI1); assay: qHTS assay to identify small molecule antagonists of the farnesoid-X-receptor (FXR) signaling pathway (AID 743217; active = well fitted inhibition curve with a large enough effect in the signal ratio in the repeat runs, not every such curve was filed as active; inconclusive = weak or mixed curves, or effect the other way; inactive = no such curve, though single readings can be large or run the other way; the % refers to the signal ratio); conditions: HEK293T FXR-UAS-bla, beta-lactamase ratio, CDCA-stimulated, 16 h; activity change, negative = inhibition: at 62.6 µM (top of the series) unless noted
Chain of UniProt Q96RI1 (Q96RI1 whole entry, looked up): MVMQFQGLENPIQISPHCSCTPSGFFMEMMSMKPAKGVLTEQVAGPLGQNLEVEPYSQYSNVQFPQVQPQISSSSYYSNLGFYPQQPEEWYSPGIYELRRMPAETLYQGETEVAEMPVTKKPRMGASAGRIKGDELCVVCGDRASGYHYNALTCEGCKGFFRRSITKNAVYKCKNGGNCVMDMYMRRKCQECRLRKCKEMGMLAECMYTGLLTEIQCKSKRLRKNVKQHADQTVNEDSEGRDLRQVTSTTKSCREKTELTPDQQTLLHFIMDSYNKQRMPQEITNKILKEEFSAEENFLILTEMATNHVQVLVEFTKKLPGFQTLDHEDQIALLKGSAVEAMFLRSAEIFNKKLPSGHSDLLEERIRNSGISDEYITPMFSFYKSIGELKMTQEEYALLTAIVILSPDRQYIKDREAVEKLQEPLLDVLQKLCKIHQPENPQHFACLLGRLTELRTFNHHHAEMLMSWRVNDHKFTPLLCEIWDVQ
In short: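 Test compounds are pin-transferred onto FXR-bla HEK 293T cells, then chenodeoxycholic acid is added at 50 uM final. After 16 h at 37 °C, LiveBLAzer B/G substrate is applied for 2 h at room temperature and fluorescence read.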

[16] = qHTS assay to identify small molecule antagonists of the peroxisome proliferator-activated receptor delta (PPARd) signaling pathway - cell viability counter screen (AID 743213); conditions: PPARd-bla HEK293H viability, CellTiter-Glo luminescence, 17 h; viability change, negative = cytotoxic: at 62 µM (top of the series) unless noted; note: nearly all actives have a fitted effect of over 50% in size
In short: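 CellTiter-Glo was added to PPARd-bla HEK293H wells following 17 h compound treatment in the presence of 300 nM L165041. Luminescence was recorded after 30 min at room temperature.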

[17] = target: Bile acid receptor (Homo sapiens) (UniProt Q96RI1); assay: qHTS assay to identify small molecule agonists of the farnesoid-X-receptor (FXR) signaling pathway (AID 743220; active = well fitted activation curve with a large enough effect in the signal ratio in the repeat runs, not every such curve was filed as active; inconclusive = weak or mixed curves, or effect the other way; the % refers to the signal ratio); conditions: HEK293T FXR-UAS-bla, beta-lactamase FRET ratio, 16 h; activation: at 62.6 µM (top of the series) unless noted
In short: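 FXR-UAS-bla HEK 293T cells carrying a UAS-driven beta-lactamase reporter were plated for 5 h at 37C/5% CO2, then exposed to DMSO-dissolved Tox21 10K compounds for 16 h at 37C. A LiveBLAzer B/G FRET substrate was loaded for 2 h at room temperature before fluorescence reading.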

[18] = qHTS assay for small molecule agonists of the antioxidant response element (ARE) signaling pathway - cell viability counter screen (AID 743203; calls by dose curve; note: nearly all actives have a fitted effect of over 55% in size); conditions: ARE-bla HepG2 viability, CellTiter-Glo luminescence, 16 h; viability change, negative = cytotoxic: at 73.3 µM (top of the series)
In short: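 ATP content via CellTiter-Glo luminescence served as the viability measure. Cells: ARE-bla HepG2, 2,000 per well. Exposure: 16 hrs, 37C/5% CO2.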

[19] = qHTS assay to identify small molecule antagonists of the farnesoid-X-receptor (FXR) signaling pathway - cell viability counter screen (AID 743221; active = well fitted cell-killing curve with a large enough effect in the repeat runs, not every such curve was filed as active; inconclusive = weak or mixed curves, or effect the other way; inactive = no such curve, though single readings can be large or run the other way; note: nearly all actives have a fitted effect of over 50% in size); conditions: FXR-bla HEK293T viability, CellTiter-Glo luminescence, 16 h; activity change, negative = cytotoxicity: at 62.6 µM (top of the series) unless noted
In short: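 Compound effects on cell number were measured as CellTiter-Glo luminescence in HEK 293T cells expressing FXR-UAS-bla, after 16 h at 37 C with 50 uM CDCA (final).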
Potency is the fitted concentration of half-maximal effect; tags give direction and shape of the fitted curve or compound fluorescence and quenching.

CC1CCC(C(C)CS)CC1S (stereo not drawn)
inconclusive: ratio activity, negative = inhibition [2] -18.7% | Potency [3] 61.6 µM [cytotoxic, single point] | Potency [4] 13.7 µM [falling, full curve] | Potency [5] 50.9 µM | activity change, negative = inhibition [6] 29%
inactive: Potency [1] | Potency [7]

CC(C)n1nc(-c2cc3cc(O)ccc3[nH]2)c2c(N)ncnc21
inconclusive: activation [8] -11.4% | Potency [2] 33.5 µM [fluorescent] | Potency [3] 4.73 µM [cytotoxic, partial curve] | Potency [4] 33.5 µM [rising, partial curve, poor fit] | Potency [9] 7.5 µM [cytotoxic, partial curve] | Potency [5] 7.5 µM | Potency [11] 8.41 µM [activator] | Potency [12] 5.31 µM [cytotoxic, partial curve] | Potency [13] 21.1 µM [rising, partial curve, poor fit] | Potency [6] 0.535 µM [inhibitor, full curve]
active: Potency [1] 0.75 µM | Potency [10] 13.3 µM | Potency [7] 15 µM

COc1ccc2sc(C(=O)Nc3nnn[nH]3)c(OC(C)C)c2c1
active: Potency [8] 5.47 µM
inactive: Potency [5]
inconclusive: Potency [1] 7.66 µM [falling, partial curve, poor fit] | Potency [2] 34.5 µM [fluorescent, partial curve, poor fit] | Potency [3] 48.8 µM [cytotoxic, partial curve, poor fit] | Potency [4] 27.2 µM [rising, partial curve, poor fit] | Potency [9] 48.8 µM [cytotoxic, partial curve] | Potency [10] 24.5 µM [cytotoxic, partial curve] | Potency [14] 3.45 µM [rising, full curve] | Potency [11] 54.7 µM [fluorescent] | activity change, negative = inhibition [15] 19.4% | Potency [13] 4.35 µM [rising, full curve] | Potency [6] 27.4 µM [fluorescent, partial curve, poor fit]

O=C(O)c1cc(O)c2ccccc2c1O
inconclusive: Potency [2] 38.9 µM [rising, partial curve] | Potency [4] 2.43 µM [falling, partial curve, poor fit] | Potency [5] 18.4 µM | Potency [10] 30.9 µM [cytotoxic, partial curve, poor fit] | Potency [16] 61.6 µM [cytotoxic, single point] | Potency [11] 61.6 µM [rising, single point] | Potency [12] 43.6 µM [cytotoxic, single point] | Potency [17] 34.7 µM [activator, partial curve, poor fit]
active: Potency [1] 54.5 µM | Potency [3] 49 µM | Potency [9] 21.9 µM

Nc1ccccc1O
inconclusive: Potency [1] 67.7 µM [falling, single point] | activation [8] -17.6% | Potency [2] 21.6 µM [inhibitor, partial curve] | Potency [4] 15.2 µM [falling, partial curve] | Potency [18] 67.7 µM [cytotoxic, single point] | Potency [9] 48.3 µM [cytotoxic, single point]
inactive: Potency [15] | Potency [6]

C[C@@H]1CN(CCCn2c3ccccc3c3ccccc32)C[C@H](C)N1
active: Potency [3] 23.7 µM | Potency [10] 10.6 µM | Potency [16] 9.44 µM | Potency [11] 29.8 µM | Potency [12] 15 µM | Potency [19] 29.8 µM | Potency [7] 26.6 µM
inconclusive: Potency [1] 29.8 µM | activation [8] -22.4% | Potency [2] 23.7 µM [rising, partial curve] | Potency [4] 33.5 µM | Potency [15] 33.5 µM [inhibitor, single point] | Potency [17] 33.5 µM | Potency [13] 29.8 µM [single point] | Potency [6] 26.8 µM
inactive: Potency [5]
